Source: PubChem BioAssay AID2100 (National Center for Advancing Translational Sciences (NCATS), 2009)
In all, about 300,000 compounds went through this assay and about 1,200 (0.4%) were called active. Inconclusive means that the source gave no clear call. Such entries were picked first, then a sample of the others. The call rests on the fitted dose curve; in most records, active means well fitted inhibition curve with a large enough effect; inconclusive means small, poorly fitted or top-dose-only effect, or another doubt; inactive means no such curve, though single readings can be large or run the other way. Where the call is inconclusive, the potency comes from a doubtful curve fit.

target: Lysosomal alpha-glucosidase (Homo sapiens) (UniProt P10253); assay: qHTS Assay for Inhibitors and Activators of Human alpha-Glucosidase Cleavage of Glycogen; conditions: recombinant GAA, glycogen substrate, Amplex Red glucose oxidase fluorescence; activity change, negative = inhibition: at 76.4 µM (top of the series) unless noted;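 on activity change, negative = inhibition: 0% = full enzyme reaction and -100% = no-enzyme basal signal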
Outline: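 Recombinant enzyme (4 nM final) with compounds titrated up to 77 uM and bovine liver glycogen (30 ug) in citrate pH 5.0, 0.01% Tween-20, 37 C 40 min. Released glucose detected by Amplex Red/glucose oxidase (Ex 573/Em 610); AC50 from Hill fits.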
Potency means the concentration at half of the fitted maximal effect.

SMILES	Potency	activity change, negative = inhibition
C/C(=N\Nc1nc2ccccc2s1)c1ccc(Br)s1	inconclusive: 2.51 µM [inhibitor, partial curve, poor fit]	–
O=C(O)c1ccc(/C=N/Nc2ccc(F)cc2F)cc1	inconclusive: 25.1 µM [inhibitor, partial curve]	–
COc1cc(/C=N/Nc2ncc(C(F)(F)F)cc2Cl)cc(OC)c1O	inconclusive: 7.03 µM [inhibitor, full curve]	–
O=C(Cc1ccccc1)NNc1c2ccccc2nc2ccccc12	inconclusive: 17.8 µM [inhibitor, partial curve]	–
O=C(NNc1nc2ccccc2nc1C(F)(F)F)c1ccccc1	active: 11.2 µM	–
COc1ccc(OC)c(-n2c(-c3ccc(O)cc3O)n[nH]c2=S)c1	inconclusive: 50.1 µM [inhibitor, single point]	–
COc1ccccc1C(=O)NNC(=S)Nc1ccccc1	inconclusive: 39.8 µM [inhibitor, partial curve, poor fit]	–
CCN1CCCc2cc(CN(CCN3CCOCC3)C(=S)Nc3cccc(OC)c3)ccc21	inconclusive: 3.14 µM [inhibitor, single point]	–
Cc1cc2c(cc1S(=O)(=O)N(C)c1ccccc1)n(C)c(=O)n2C	inactive	–
CC1(C)C(c2cccs2)=[N+]([O-])C2(CCCCC/C2=N\NC(N)=O)N1O (centres undefined)	inconclusive: 15.7 µM [inhibitor, partial curve]	–
Cc1ccc(O)c(NC(=O)/C=C/C(=O)O)c1	inconclusive: 14.1 µM [inhibitor, partial curve]	–
CCOc1ccc(CC(=O)NNC(=S)Nc2ccc(OC)c(OC)c2)cc1	inconclusive: 3.55 µM [inhibitor, partial curve]	–
CCOc1cc(C2/C(=C(\O)c3cc(C)ccc3C)C(=O)C(=O)N2CCN(C)C)ccc1O (centres undefined)	inconclusive: 35.5 µM [inhibitor, partial curve]	–
CC(=O)Nc1ccc(C(=O)NNS(=O)(=O)c2ccc(C)cc2)cc1	inconclusive: 15.8 µM [inhibitor, partial curve]	–
CC1CCc2c(C(=O)NCC3CCCO3)csc2C1 (centres undefined)	–	inconclusive: 39.8% [activator]
CN1CCc2c(sc(/N=C/c3c[nH]c4ccccc34)c2C#N)C1	inconclusive: 17.8 µM [activator, single point]	–
CCOc1cc(-c2nc(-c3ccccc3)c(-c3cc([N+](=O)[O-])ccc3C)[nH]2)ccc1O	inconclusive: 17.6 µM [inhibitor, partial curve]	–
Cc1nc(C#N)c(N/N=C/c2cccc(Cl)c2)o1	active: 31.6 µM	–
O=C(COc1cccc(Cl)c1)NNC(=S)Nc1ccccc1	inconclusive: 44.7 µM [inhibitor, single point]	–
O=c1[nH]c(=O)c2nc(-c3ccc(Cl)cc3)cnc2[nH]1	inactive	–
CCOc1cc(/C=C/c2cccc[n+]2C)ccc1O	inconclusive: 11.2 µM [inhibitor, single point]	–
S=c1[nH]nc(-c2ccco2)n1/N=C/c1ccc(Cl)cc1	inconclusive: 35.5 µM [inhibitor, single point]	–
O=C(O)c1ccc(N/N=C/c2ccc(-c3cc(Cl)ccc3Cl)o2)cc1	inconclusive: 25.1 µM [inhibitor, partial curve]	–

SMILES	Potency	activity change, negative = inhibition
N#CCCn1nc(-c2ccc(Cl)cc2)cc1Nc1ccccc1NC(=O)C(F)(F)F	inconclusive: 15.7 µM [inhibitor, partial curve]	–
O=C1Cc2ccccc2C(=O)N1OCc1ccc(Cl)cc1Cl	active: 25.1 µM	–
CCCc1ccc(Oc2c(-c3ccc(O)c(C)c3O)n[nH]c2C)cc1	inconclusive: 14.1 µM [inhibitor, partial curve]	–
Cc1ccc(C)n1C(CC(=O)O)c1ccc(C#N)cc1 (centres undefined)	inconclusive: 35.5 µM [activator, single point]	–
Cc1oc2c(c1C(=O)c1ccc(Cl)cc1)C(=O)C(=O)c1ccccc1-2	inactive	–
Cc1cc(C)n2c(nc3ccccc32)c1C(=O)NN	inconclusive: 50.1 µM [inhibitor, single point]	–
Cn1c(SCCOc2ccccc2Cl)nnc1-c1ccncc1	inconclusive: 50.1 µM [inhibitor, single point]	–
Cc1cccc(NC(=O)CSc2nnc(-c3cccs3)o2)c1	inactive	–
CCC(=O)N1CCc2cc(Br)cc(S(=O)(=O)NCCc3ccccc3Cl)c21	inactive	–
COc1ccccc1-c1cn[nH]c1-c1ccc(OCC(=O)NN)cc1O	inconclusive: 19.8 µM [inhibitor, single point]	–
COC(=O)c1ccc(O)c(Sc2cc(C(=O)OC)ccc2O)c1	inactive	–
CC1=NNC(=O)C1Cc1ccccc1C (centres undefined)	inconclusive: 3.14 µM [inhibitor, single point]	–
CCc1cc(C=NC2CCCCC2)c(O)s1	inconclusive: 17.6 µM [inhibitor, partial curve]	–
COc1ccccc1OCC(=O)N(Cc1ccc(N(C)C)cc1)CC1CCCO1 (centres undefined)	inconclusive: 22.4 µM [inhibitor, partial curve]	–
COc1ccc(NC(=O)Nc2ccccc2SC)cc1	inactive	–
Cc1ccc2c(N)[nH]nc2n1	inconclusive: 20 µM [inhibitor, partial curve]	–
Cc1ccc(-c2[nH]nc3c2C(c2cccnc2)C(C#N)=C(N)O3)cc1 (centres undefined)	inactive	–
Cc1noc(/C=C/c2ccco2)c1S(=O)(=O)N1CCC(C(=O)Nc2ccc(F)cc2F)CC1	inactive	–
Cc1ccc([N+](=O)[O-])cc1N/C=C1\CCCCC1=O	inconclusive: 39.5 µM [inhibitor, single point]	–
Fc1ccc(NCc2cn3ccccc3n2)cc1	inactive	–
O=c1[nH]c(NNC(=S)NCc2ccccc2)nc2c1C1(CCCCC1)Cc1ccccc1-2	inconclusive: 3.52 µM [inhibitor, full curve]	–
Cc1ccc(S(=O)(=O)N/N=C/c2cccn2-c2ccc(Cl)cc2)cc1	inconclusive: 44.7 µM [inhibitor, partial curve, poor fit]	–
COc1ccc(-n2c(C)cc(/C=C/c3nc(O)c([N+](=O)[O-])c(=O)[nH]3)c2C)cc1	inconclusive: 28.2 µM [activator, partial curve, poor fit]	–

SMILES	Potency	activity change, negative = inhibition
CC(=O)Nc1ccc(NC2=C/C(=N/S(=O)(=O)c3cccs3)c3ccccc3C2=O)cc1	inactive	–
CC(=O)C1=C(C)N(Cc2ccco2)C(=O)C1(NC(=O)C1CCCCC1)C(F)(F)F (centres undefined)	inconclusive: 7.03 µM [inhibitor, single point]	–
COc1cc(C2CC(=O)NC3=C2C(=O)CC(C)(C)C3)ccc1O (centres undefined)	inconclusive: 8.84 µM [inhibitor, partial curve]	–
COc1ccccc1N1CCN(/N=C/c2cc(OC)c(OC)c(OC)c2)CC1	inconclusive: 31.6 µM [inhibitor, single point]	–
NC(=O)c1c(Nc2nc3c(F)cccc3s2)sc2c1CCCC2	inconclusive: 25.1 µM [inhibitor, partial curve]	–
CCOC(=O)Cc1csc(Nc2c(C)n(C)n(-c3ccccc3)c2=O)n1	active: 10 µM	–
NNC(=O)c1csc(Cc2c(Cl)sc3ccc(Cl)cc23)n1	inconclusive: 11.2 µM [inhibitor, partial curve]	–
CCc1ccccc1N1C[C@@]23C=C[C@@H](O2)C(C(=O)OCC(C)C)[C@H]3C1=O (some centres undefined)	inactive	–
Cc1cccc(NC(=O)N2CCC(CN3CCc4ccccc4C3)CC2)c1C	inactive	–
COc1cc(/C=C2\C(=O)NN(c3ccccc3)C2=O)ccc1OCC(N)=O	inconclusive: 4.47 µM [inhibitor, full curve]	–
C=CCc1c(C)nc(-c2ccccc2)nc1N/N=C/c1ccncc1	inactive	–
CC(=O)Nc1ccc(NC(C)=O)s1	active: 8.91 µM	–
N#Cc1nc(Cc2cccc3ccccc23)oc1NCCCn1ccnc1	inconclusive: 31.6 µM [inhibitor, single point]	–
Cc1nc(CC(=O)Nc2ccc(N(C)C)cc2)cs1	inconclusive: 31.6 µM [activator, partial curve]	–
CCOC(=O)C1=C(c2ccccc2)NC(=O)NC1c1ccc(O)c(OCC)c1 (centres undefined)	inconclusive: 22.4 µM [inhibitor, partial curve]	–
CCOC(=O)CSC1=C(C#N)C(c2ccccc2OCC)C(C#N)C(=O)N1 (centres undefined)	inconclusive: 24.9 µM [activator, single point]	–
COc1ccc(C(=O)[C@H]2[C@H]3C(=O)N(c4ccc(OC(C)=O)cc4)C(=O)[C@H]3C3C=CC=NN32)cc1 (some centres undefined)	inconclusive: 31.6 µM [activator, single point]	–
CCn1c(=O)n(CC)c2cc(N3CCCC3)c(NC(=O)c3ccc(C)c([N+](=O)[O-])c3)cc21	inconclusive: 35.5 µM [inhibitor, single point]	–
CCN1C(=O)c2cccc3c(S(=O)(=O)Nc4nc(C)cs4)ccc1c23	inactive	–
Cc1ccc(Nc2c(-c3ccc(N4CCOCC4)cc3)nc3ncccn23)cc1	inconclusive: 7.94 µM [inhibitor, full curve]	–
COC(=O)C1=C(C)Nc2c(c(=O)n(C)c(=O)n2C)C1c1cccc(O)c1 (centres undefined)	inconclusive: 8.84 µM [inhibitor, full curve, poor fit]	–
CNC(=S)N/N=C/c1cn(Cc2ccc(C)cc2)c2ccccc12	inconclusive: 35.5 µM [inhibitor, partial curve]	–
COc1ccc(/C=N/Nc2ccccc2C(=O)O)cc1Cn1cc([N+](=O)[O-])cn1	inconclusive: 25.1 µM [inhibitor, partial curve]	–
